{"source": "ChEMBL document CHEMBL4888484", "about": "“Replenishing the malaria drug discovery pipeline: Screening and hit evaluation of the MMV Hit Generation Library 1 (HGL1) against asexual blood stage Plasmodium falciparum ,using a nano luciferase reporter read-out” (2022)", "note": "The whole screen tested about 150,000 compounds, of which about 540 (0.36%) showed an effect of 50% or more. Some of the results follow."}
{"test_system": "Plasmodium falciparum", "assay": "Primary screen in NF54 nanoGlo assay, in single point, at 2uM, 72h; a lower Z score goes with more inhibition", "format": "functional, Erythrocyte", "details": "timepoint 72 hour", "units": {"% Inhibition": "%"}}
{"compound": "Cn1cc(NC(=O)N(CCO)CC2CC2)ccc1=O", "% Inhibition": 1, "Z score": -0.12}
{"compound": "O=c1c2ncn(COCCO)c2nc2n1CN(C1CCCC1)CN2", "% Inhibition": 7, "Z score": -0.91}
{"compound": "CCN(C(=O)c1scc(C)c1Cl)[C@@H](C)CS(C)(=O)=O", "% Inhibition": 4, "Z score": -0.6}
{"compound": "CC(C)c1ncc(CN(C)Cc2nncn2C)cn1", "% Inhibition": -2, "Z score": 0.39}
{"compound": "CC(C)(C)n1nccc1NC(=O)NC1CC2CCC(C1)S2(=O)=O", "note": "(stereo unspecified)", "% Inhibition": 30, "Z score": -3.29}
{"compound": "CCCNS(=O)(=O)c1cc(-c2nc(C)c(C(=O)N3CCCCC3)s2)n(C)c1", "% Inhibition": -3, "Z score": 0.32}
{"compound": "C[C@H](NC(=O)N1CCN(c2nccs2)CC1)c1cccnc1", "% Inhibition": -9, "Z score": 1.61}
{"compound": "Cc1cc(=O)[nH]c(NCc2ccc3c(c2)OCO3)n1", "% Inhibition": 20, "Z score": -3.54}
{"compound": "COCCc1noc(-c2[nH]c3ccc(C)cc3c2C)n1", "% Inhibition": 4, "Z score": -0.79}
{"compound": "COc1ccc(CCCNC(=O)c2ccc(CN3CCOCC3)cc2)cc1OC", "% Inhibition": -12, "Z score": 1.64}
{"compound": "CC[C@@]1(C)CC(c2csc(N)n2)CCO1", "note": "(stereo partly specified)", "% Inhibition": -4, "Z score": 0.46}
{"compound": "CCO[C@@H](C)c1nc(C)c(C(=O)N(C)c2ccc(N(C)C)cc2)s1", "% Inhibition": -5, "Z score": 0.71}
{"compound": "CC(=O)NC1CCN(c2nc(C3CCCC3)nc3c2CCOCC3)CC1", "% Inhibition": -4, "Z score": 0.51}
{"compound": "Cc1ccccc1-c1cn2c(n1)COCC2", "% Inhibition": -4, "Z score": 0.68}
{"compound": "Cc1nc[nH]c1-c1nccn1Cc1ccc2c(c1)CCCO2", "% Inhibition": -6, "Z score": 1.22}
{"compound": "N#Cc1c(NC(=O)CCN2CCC(O)CC2)sc2c1CCCCC2", "% Inhibition": -6, "Z score": 0.95}
{"compound": "COc1ccc(Cl)cc1NC(=O)c1sc2ncnc(N(C)c3ccccc3)c2c1C", "% Inhibition": 1, "Z score": -0.22}
{"compound": "NC(=O)CC1CCN(C(=O)N(c2ccccc2)c2ccccc2)CC1", "% Inhibition": -7, "Z score": 0.81}
{"compound": "CC(=O)CC(=O)Nc1ccc(C)cc1Br", "% Inhibition": -5, "Z score": 0.74}
{"compound": "CCC(CO)(CO)NC(=O)c1cc(F)c(C)cc1F", "% Inhibition": -3, "Z score": 0.38}
{"compound": "c1ccc2oc(NCc3noc(C4CC4)n3)nc2c1", "% Inhibition": -8, "Z score": 0.95}
{"compound": "CN1c2ccccc2C(=O)N(c2ccccc2Cl)[C@H]1c1cscn1", "% Inhibition": 9, "Z score": -1.16}
{"compound": "OC1CCCN(CC(O)COc2ccc3ccccc3c2)C1", "note": "(stereo unspecified)", "% Inhibition": 0, "Z score": 0.04}
{"compound": "CN1CC[C@@H](C(=O)NC(C)(C)COc2ncccc2C(F)(F)F)S1(=O)=O", "% Inhibition": 5, "Z score": -0.96}
{"compound": "NCc1cccc(NC(=O)N2C[C@H]3CCC[C@@H](C3)C2)c1", "% Inhibition": -13, "Z score": 2.03}
{"compound": "CCNC(=O)c1cnn(-c2cc(-c3nc(CC)no3)ccn2)c1C", "% Inhibition": -18, "Z score": 2.83}
{"compound": "CCN(CC)CCNC(=O)c1cccc(C)c1O", "% Inhibition": 4, "Z score": -0.48}
{"compound": "Cc1cnc(NC(=O)C2(S(C)(=O)=O)CCOCC2)s1", "% Inhibition": -7, "Z score": 1.24}
{"compound": "Cc1cc(C(=O)N2CC[C@@H]3OCc4cccc(c4)Oc4cncc(c4)C(=O)NCCCC(=O)N[C@H]3C2)cc(C)n1", "% Inhibition": -14, "Z score": 2.59}
{"compound": "CC(C)Nc1cc(-c2ccc(C(=O)N3CC[C@@](O)(CO)C3)cc2)nc(N)n1", "% Inhibition": -7, "Z score": 1.11}
{"compound": "O=C(NCCCc1ccccc1)[C@@H]1CCCN1C(=O)Nc1ccc2c(c1)OCCO2", "% Inhibition": 0, "Z score": -0.03}
{"compound": "Cc1ccnc(C(C)(C)C(=O)NC[C@H]2CC(=O)N(C)[C@@H]2c2cnn(C)c2C)c1", "% Inhibition": -2, "Z score": 0.33}
{"compound": "Cc1cccc(OCc2cncc(-c3cccc(C)c3C)c2)c1C", "% Inhibition": -10, "Z score": 1.59}
{"compound": "COCCCNC(=O)[C@@H]1CCCCC(=O)N1Cc1ccccc1", "% Inhibition": -2, "Z score": 0.2}
{"compound": "O=C(Cn1ncc(=O)c2ccccc21)Nc1ccncc1", "% Inhibition": -8, "Z score": 1.42}
{"compound": "COCc1ccc(C(=O)N2CCc3[nH]cnc3[C@H]2c2ccncc2)s1", "% Inhibition": -6, "Z score": 0.55}
{"compound": "Cc1cccc(-c2n[nH]cc2-c2nc([C@H]3CCOC3)no2)c1", "% Inhibition": -5, "Z score": 0.95}
{"compound": "O=C(Cc1ccsc1)NCc1noc([C@@H]2CCCO2)n1", "% Inhibition": -13, "Z score": 2.66}
{"compound": "O=S(=O)(NC[C@H]1CCCNC1)c1c(Cl)cccc1C(F)(F)F", "% Inhibition": -5, "Z score": 0.71}
{"compound": "Cc1cc(CO)cc(C)c1CNc1ncnc2c1CCC2", "% Inhibition": -5, "Z score": 0.85}
{"compound": "O=C(Cn1c(=O)ccc2cc(S(=O)(=O)N3CCCC3)ccc21)N1CCN(c2ccc(F)cc2)CC1", "% Inhibition": -5, "Z score": 0.69}
{"compound": "O=C(CCc1cccnc1)NC(c1cccs1)[C@H]1C[C@@H](O)C1", "note": "(stereo partly specified)", "% Inhibition": -16, "Z score": 2.29}
{"compound": "CCCCn1cc(-c2ccc3ccccc3n2)c(=S)c2ccccc21", "% Inhibition": 1, "Z score": -0.11}
